The test system of one assay is HSkMC. The assay is described as follows: cytotoxicity call (relative viability < 0.9). As to conditions: 10 µM.
The subject of another assay is HepG2. The assay is described as follows: cytotoxicity call (relative viability < 0.9). As to conditions: 10 µM.
The test system of a further assay is S. aureus RN4220. Nature of the assay: growth inhibition call (relative growth <= 0.2). As to conditions: 50 µM.

Molecules are shown by their SMILES. Some of the results follow.

For the compound `CC(C)NC(=O)N(C)C[C@@H]1Oc2ccc(NC(=O)Cn3cnnn3)cc2CC(=O)N([C@H](C)CO)C[C@@H]1C`, the cytotoxicity call with HSkMC and in the assay with HepG2 was “inactive” throughout. For the same compound, the growth inhibition call in the assay with S. aureus RN4220 was “inactive”.
Regarding `C[C@H](CO)N1C[C@H](C)[C@H](CN(C)Cc2ccc3c(c2)OCO3)OCCCC[C@H](C)Oc2ccc(NC(=O)Nc3ccc4c(c3)OCO4)cc2C1=O`, in the assay with HSkMC, the cytotoxicity call is “inactive”. Besides, the cytotoxicity call in the assay on HepG2 was “active”. Besides, the growth inhibition call in the assay with S. aureus RN4220 was “inactive”.
As to `Cc1ccc(S(=O)(=O)Oc2ccc(/N=N/c3ccc(-c4ccc(/N=N/c5c(O)ccc6cc(S(=O)(=O)O)cc(S(=O)(=O)O)c56)c(C)c4)cc3C)cc2)cc1`, the cytotoxicity call in the assay on HSkMC (human skeletal muscle cells) and in the assay with HepG2 was “inactive” throughout. Further, the growth inhibition call with S. aureus RN4220 was “inactive”.
In the case of `C[C@H]1CCCCO[C@H](CN(C)C(=O)Cc2ccccc2)[C@@H](C)CN([C@@H](C)CO)C(=O)c2cc(NC(=O)Nc3ccc(F)cc3)ccc2O1`, the cytotoxicity call with HSkMC and in the assay with HepG2 was “inactive” throughout. Also, in the assay on S. aureus RN4220, the growth inhibition call is “inactive”.
In the case of `CN(C)C(=O)N1C[C@@H]2[C@@H](C1)C(=O)N(C)C21CCN(S(C)(=O)=O)CC1`, the cytotoxicity call in the assay with HSkMC and in the assay with HepG2 was “inactive” each time. The growth inhibition call in the assay on S. aureus RN4220 is “inactive”.
On to `Cc1noc(C)c1NC(=O)N[C@@H]1CC[C@@H](CC(=O)NCCCN(C)C)O[C@@H]1CO`, for which the cytotoxicity call in the assay with HSkMC and in the assay on HepG2 was “inactive” each time. For the same compound, the growth inhibition call in the assay on S. aureus RN4220 was “inactive”.
With `C[C@H](CO)N1C[C@H](C)[C@@H](CN(C)C(=O)Nc2ccc3c(c2)OCO3)Oc2c(NS(=O)(=O)c3cn(C)cn3)cccc2C1=O`, the cytotoxicity call in the assay with HSkMC and with HepG2 was “inactive” in each case. In addition, in the assay on S. aureus RN4220, the growth inhibition call is “inactive”.
With `COc1ccc(CNC(=O)C[C@@H]2CC[C@H]3[C@@H](COc4ccc(NC(=O)C(C)C)cc4C(=O)N3C)O2)cc1`, the cytotoxicity call with HSkMC and in the assay on HepG2 was “inactive” in each case. The growth inhibition call in the assay on S. aureus RN4220 is “inactive”.
For the compound `CC(C)NC(=O)N(C)C[C@H]1Oc2ccc(NC(=O)Cn3cnnn3)cc2C(=O)N([C@H](C)CO)C[C@H]1C`, the cytotoxicity call with HSkMC and with HepG2 was “inactive” each time. Also, the growth inhibition call in the assay with S. aureus RN4220 is “inactive”.

For the origin of these results see the antibiotic and cytotoxicity screens of Wong et al. (2023).
